Assay results reported in PubChem BioAssay AID540317 (National Center for Advancing Translational Sciences (NCATS), 2011).
Screen size: about 390,000 compounds; about 2,200 (0.56%) were called active. The shares of active, inactive and inconclusive entries below differ from those in the screen. The call rests on the fitted dose curve; in most records, active means well fitted inhibition curve with a large enough effect; inconclusive means small, poorly fitted or top-dose-only effect; inactive means no such curve, though single readings can be large or run the other way. Where the call is inconclusive, the potency comes from a doubtful curve fit.

The compounds below were run against Chromobox protein homolog 1 (Homo sapiens) (UniProt P83916) (assay: HTS for Inhibitors of HP1-beta Chromodomain Interactions with Methylated Histone Tails). Details: AlphaScreen HP1-beta / biotin-H3K9me3 peptide binding; series mostly up to 114 µM.
Outline: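 Compound inhibition of the preformed complex between 50 nM HP1-beta and 50 nM biotinylated H3K9me3 peptide was read by AlphaScreen. Buffer was PBS pH 7.4 with 0.01% Tween-20. Incubations ran 30 min at room temperature, with 10 ug/mL donor/acceptor beads.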
Further: nearly all actives have a fitted effect of over 70% in size.
Potency means the concentration at half of the fitted maximal effect; tags describe the fitted curve by direction and shape.

UniProt P83916, sequence (P83916 whole entry, looked up): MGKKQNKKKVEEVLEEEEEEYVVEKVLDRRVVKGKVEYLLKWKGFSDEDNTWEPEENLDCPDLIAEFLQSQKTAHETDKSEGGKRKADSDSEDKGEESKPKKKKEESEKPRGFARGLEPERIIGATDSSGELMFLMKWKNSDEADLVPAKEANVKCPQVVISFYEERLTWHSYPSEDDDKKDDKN

Row | SMILES | Potency
1 | CC(=O)c1cccc(NC(=O)C2CCN(c3nnc(-n4cccc4)s3)CC2)c1 | inactive
2 | CC1(C2(O)CCCCC2)NCCc2ccccc21 (centres undefined) | active: 70.8 µM
3 | CC(OC(=O)c1ccc(O)cc1)C(=O)Nc1ccc(Oc2ccccc2)cc1 (centres undefined) | inactive
4 | O=C(N/N=C/c1ccc(N2CCCC2)c([N+](=O)[O-])c1)c1cccnc1 | inactive
5 | Cc1ccc(-c2nc3sc4c(c3c(=O)n2N)CC(C)(C)OC4)cc1 | inconclusive: 31.6 µM [inhibitor, partial curve, poor fit]
6 | COc1ccc(N2CCN(C(=O)C(=O)c3cn(CC(=O)N4CCCCCC4)c4ccccc34)CC2)cc1 | inconclusive: 50.1 µM [inhibitor, partial curve]
7 | CC(C)Nc1cc(N2CCN(C3CCCCC3)CC2)c2noc3c2c1C(=O)c1ccccc1-3 | inconclusive: 35.5 µM [inhibitor, partial curve]
8 | Cc1cs/c(=N\N=C\c2ccc(O)cc2)n1Cc1ccco1 | inconclusive: 39.8 µM [inhibitor, partial curve]
9 | CCOc1ccccc1CNC(=O)C1=C(C)C(=O)OC12CCN(C(C)=O)CC2 | inactive
10 | CCOC(=O)N1CCN(C2=C(NS(=O)(=O)c3ccc(C)cc3)C(=O)c3ccccc3C2=O)CC1 | active: 20 µM
11 | CCOC(=O)c1[nH]c(C)c(CCC(=O)Nc2ccc(C)cc2Cl)c1C | inactive
12 | CC(=O)n1c2ccccc2c2nc3ccccc3nc21 | inactive
13 | CCCOc1ccc(CNC(=O)CCCN2C(=O)CSc3c2c(C)nn3-c2ccccc2)cc1 | inconclusive: 89.1 µM [inhibitor, single point]
14 | CCOc1ccccc1/C=N/N1CCN(Cc2ccccc2)CC1 | inconclusive: 35.5 µM [inhibitor, partial curve]
15 | CCOC(=O)c1ccc(N2C(=O)c3n[nH]c(-c4ccco4)c3C2c2cccc([N+](=O)[O-])c2)cc1 (centres undefined) | inconclusive: 25.1 µM [inhibitor, full curve]
16 | O=C(CC1Nc2ccccc2NC1=O)NCCCN1CCCCCC1 (centres undefined) | inactive
17 | C=CCc1cc(Cl)ccc1OCCNCCN1CCOCC1 | inconclusive: 39.8 µM [inhibitor, partial curve]
18 | Cc1ccc(C(c2ccc(C)o2)c2cccc([N+](=O)[O-])c2O)o1 | inconclusive: 15.8 µM [inhibitor, full curve, poor fit]
19 | CC(C)c1ccc(C(=O)NCc2ccc(Cl)cc2)cc1 | inconclusive: 35.5 µM [inhibitor, single point]
20 | Cc1ccc(-c2c[nH]c(=S)n2-c2ccccc2F)cc1 | inconclusive: 39.8 µM [inhibitor, partial curve]
21 | CC1=C/C(=C(/c2ccc(O)c(C)c2)c2ccccc2S(=O)(=O)O)C=CC1=O | inconclusive: 17.8 µM [inhibitor, full curve]
22 | CC(C)c1ccc(N(C(=O)c2csnn2)C(C(=O)NC(C)(C)C)c2ccncc2)cc1 (centres undefined) | inactive
23 | Cc1cccc(NC(=O)/C(=C\c2ccc([N+](=O)[O-])o2)NC(=O)c2ccc(Cl)cc2)c1 | inconclusive: 79.4 µM [inhibitor, single point]

Row | SMILES | Potency
24 | CCOC(=O)N1CCN(C/C(Cl)=C/c2ccccc2)CC1 | active: 50.1 µM
25 | CN=c1scc(-c2cc(OC)ccc2OC)n1/N=C/c1c(C)[nH]c2ccccc12 | active: 31.6 µM
26 | O=C(NCc1ccco1)C1CCCN(c2nnc(-n3cccc3)s2)C1 (centres undefined) | inconclusive: 35.5 µM [inhibitor, full curve]
27 | Cn1c(-c2sccc2OCc2ccccc2)n[nH]c1=S | inconclusive: 31.6 µM [inhibitor, single point]
28 | COc1ccc2cc1Oc1ccc(cc1)C[C@H]1c3c(cc4c(c3Oc3cc5c(cc3OC)CCN(C)[C@@H]5C2)OCO4)CCN1C | inconclusive: 28.2 µM [inhibitor, partial curve]
29 | N#Cc1nc(-c2ccco2)oc1N1CCc2ccccc2C1 | inconclusive: 15.8 µM [inhibitor, full curve]
30 | Cn1c(-c2cccc(Br)c2)cnc1NCc1cccc(F)c1 | inconclusive: 17.8 µM [inhibitor, full curve]
31 | CSc1cccc(NC(=O)COc2cccc3ccccc23)c1 | inconclusive: 2.82 µM [inhibitor, partial curve, poor fit]
32 | Cc1ccc(NC2SC(=O)N(Cc3cccc(C(=O)O)c3)C2=O)cc1 (centres undefined) | inactive
33 | COc1ccc(N2CCN(CC(O)COc3ccc4c(c3)CCC4)CC2)cc1 (centres undefined) | inconclusive: 20 µM [inhibitor, full curve]
34 | COc1ccc(OC)c(CN2CCC(C(=O)N3CCOCC3)CC2)c1 | inconclusive: 44.7 µM [inhibitor, partial curve, poor fit]
35 | O=C(CCCN1C(=O)/C(=C/c2cccc(Br)c2)SC1=S)N1CCOCC1 | inconclusive: 39.8 µM [inhibitor, partial curve, poor fit]
36 | N#C/C(=C\c1cccc(O)c1)c1nc2ccccc2o1 | inactive
37 | CCOC(=O)c1sc(N)nc1C(C)C | inconclusive: 35.5 µM [inhibitor, partial curve]
38 | COc1cc(N=Nc2c(O)c3ccccc3[nH]c2=O)c(OC)cc1N=Nc1ccccc1 | inconclusive: 50.1 µM [inhibitor, partial curve, poor fit]
39 | O=C(O)/C=C\C(=O)Nc1ccc(N2CCN(c3cccc(Cl)c3)CC2)cc1 | inconclusive: 44.7 µM [inhibitor, partial curve]
40 | Cc1ccc(NC(=O)CCC(=O)NNC(=O)CCc2ccccc2)c(C)c1 | inactive
41 | CN(C)S(=O)(=O)c1cccc(C(=O)OCC(=O)Nc2ccccc2OC(F)F)c1 | inconclusive: 39.8 µM [inhibitor, partial curve, poor fit]
42 | COc1ccc(N2CCN(C(CNS(=O)(=O)c3ccc(OC)c(C)c3)c3ccco3)CC2)cc1 (centres undefined) | inconclusive: 28.2 µM [inhibitor, partial curve, poor fit]
43 | Cc1cc(C)c(COc2ccc(/C=N/n3c(C)n[nH]c3=S)cc2)c(C)c1 | inconclusive: 56.2 µM [inhibitor, partial curve]
44 | CC(C)Oc1ccc(CNCC2(O)CCOC(C)(C)C2)cc1 (centres undefined) | inconclusive: 28.2 µM [inhibitor, single point]
45 | Cn1ccsc1=NC(=O)c1ccc([N+](=O)[O-])o1 | inconclusive: 56.2 µM [inhibitor, partial curve, poor fit]
46 | Cc1ccc(CNC(=O)CN2C(=O)CSc3ccc(S(=O)(=O)N4CCCCC4)cc32)cc1 | inactive

Row | SMILES | Potency
47 | Cc1ccc(C)c(S(=O)(=O)Nc2ccc(O)c3ccccc23)c1 | active: 15.8 µM
48 | CSc1ccc(CNc2ccc(C)c(C)c2)cc1 | inconclusive: 50.1 µM [inhibitor, partial curve]
49 | O=C(CN1CCCCCC1)NCCc1ccc(F)cc1 | inconclusive: 56.2 µM [inhibitor, partial curve]
50 | O=C(CN1CCN(c2ncccn2)CC1)N1CCCC1 | inconclusive: 20 µM [inhibitor, full curve]
51 | COc1ccc(CNC(=O)Cn2c(=O)oc3cc(S(=O)(=O)NCc4ccccc4)ccc32)cc1 | inactive
52 | N/N=C/C(=N\Nc1ccc(Cl)cc1)C(=O)c1ccncc1 | inactive
53 | CC1CCCCC1NC(=O)CSc1nnc(-c2ccncc2)n1CCCN(C)C (centres undefined) | active: 28.2 µM
54 | COc1ccc2ccccc2c1C1CC(=O)N2CN(Cc3ccco3)CSC2=C1C#N (centres undefined) | inconclusive: 20 µM [inhibitor, full curve]
55 | CC1(C)CC(=O)C2=C(C1)NC(=S)C(C#N)C21CCCCC1 (centres undefined) | inconclusive: 14.1 µM [inhibitor, full curve, poor fit]
56 | N#Cc1c(N)sc(=S)c2c1CCCC2 | inconclusive: 50.1 µM [inhibitor, partial curve]
57 | COc1ccc(-n2c(C)cc(C(=O)Cn3c(NCCO)nc4ccccc43)c2C)cc1 | inconclusive: 50.1 µM [inhibitor, partial curve, poor fit]
58 | O=c1cc(CSc2nnc(-c3cccs3)n2Cc2ccccc2)nc2sc3ccccc3n12 | inactive
59 | CN(C)CC(CCC(CN(C)C)C(=O)c1ccccc1)C(=O)c1ccccc1 (centres undefined) | inactive
60 | COc1ccccc1NC(=O)c1ccc(NC(=O)COC(=O)c2cccnc2Cl)cc1 | inactive
61 | Cc1ccc(NC(=O)CN2C(=O)COc3ccc(S(=O)(=O)N4CCCCCC4)cc32)c(C)c1 | inactive
62 | CCc1ccc(C2C(C#N)=C(N)N(N3CCOCC3)C3=C2C(=O)CC(C)(C)C3)s1 (centres undefined) | inconclusive: 39.8 µM [inhibitor, single point]
63 | O=C(Nc1cc([N+](=O)[O-])ccc1O)c1cccc(C(=O)Nc2cc([N+](=O)[O-])ccc2O)c1 | inactive
64 | Cc1ccc(C2C3=C(CC(C)(C)CC3=O)N=C3c4ccccc4C(=O)C32)cc1 (centres undefined) | inconclusive: 25.1 µM [inhibitor, full curve, poor fit]
65 | O=c1c2[nH]c3ccccc3c2ncn1C1CCCCC1 | inactive
66 | CC(=O)Nc1ccc(NC(=O)CCCc2c[nH]c3ccccc23)cc1 | inconclusive: 89.1 µM [inhibitor, partial curve, poor fit]
67 | Cc1ccc(O)c(C(=O)/C=C/c2ccc3c(c2)OCCCO3)c1 | inconclusive: 14.1 µM [inhibitor, partial curve, poor fit]
68 | N#CC1=C2SCN(Cc3ccccc3)CN2C(=O)CC1c1ccc2c(c1)OCO2 (centres undefined) | inconclusive: 17.8 µM [inhibitor, full curve]
69 | S=c1[nH]nc(-c2ccncc2)n1/N=C/C=C/c1ccccc1 | inconclusive: 79.4 µM [inhibitor, single point]
